Results on 44 compounds are retold here after publication PMC4336329 (PLoS ONE, 2015).

The structures appear in SMILES notation. The campaign covered roughly 310,000 compounds. About 14,000 (4.5%) showed an effect of 50% or more. The effect is printed as a negative number. The list shows a part of the results.
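Also: peak tail current of the secondary pulse compared with the same well before compound.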

Sequence of human ether-à-go-go-related gene (hERG) potassium channel (Q12809 whole entry, looked up): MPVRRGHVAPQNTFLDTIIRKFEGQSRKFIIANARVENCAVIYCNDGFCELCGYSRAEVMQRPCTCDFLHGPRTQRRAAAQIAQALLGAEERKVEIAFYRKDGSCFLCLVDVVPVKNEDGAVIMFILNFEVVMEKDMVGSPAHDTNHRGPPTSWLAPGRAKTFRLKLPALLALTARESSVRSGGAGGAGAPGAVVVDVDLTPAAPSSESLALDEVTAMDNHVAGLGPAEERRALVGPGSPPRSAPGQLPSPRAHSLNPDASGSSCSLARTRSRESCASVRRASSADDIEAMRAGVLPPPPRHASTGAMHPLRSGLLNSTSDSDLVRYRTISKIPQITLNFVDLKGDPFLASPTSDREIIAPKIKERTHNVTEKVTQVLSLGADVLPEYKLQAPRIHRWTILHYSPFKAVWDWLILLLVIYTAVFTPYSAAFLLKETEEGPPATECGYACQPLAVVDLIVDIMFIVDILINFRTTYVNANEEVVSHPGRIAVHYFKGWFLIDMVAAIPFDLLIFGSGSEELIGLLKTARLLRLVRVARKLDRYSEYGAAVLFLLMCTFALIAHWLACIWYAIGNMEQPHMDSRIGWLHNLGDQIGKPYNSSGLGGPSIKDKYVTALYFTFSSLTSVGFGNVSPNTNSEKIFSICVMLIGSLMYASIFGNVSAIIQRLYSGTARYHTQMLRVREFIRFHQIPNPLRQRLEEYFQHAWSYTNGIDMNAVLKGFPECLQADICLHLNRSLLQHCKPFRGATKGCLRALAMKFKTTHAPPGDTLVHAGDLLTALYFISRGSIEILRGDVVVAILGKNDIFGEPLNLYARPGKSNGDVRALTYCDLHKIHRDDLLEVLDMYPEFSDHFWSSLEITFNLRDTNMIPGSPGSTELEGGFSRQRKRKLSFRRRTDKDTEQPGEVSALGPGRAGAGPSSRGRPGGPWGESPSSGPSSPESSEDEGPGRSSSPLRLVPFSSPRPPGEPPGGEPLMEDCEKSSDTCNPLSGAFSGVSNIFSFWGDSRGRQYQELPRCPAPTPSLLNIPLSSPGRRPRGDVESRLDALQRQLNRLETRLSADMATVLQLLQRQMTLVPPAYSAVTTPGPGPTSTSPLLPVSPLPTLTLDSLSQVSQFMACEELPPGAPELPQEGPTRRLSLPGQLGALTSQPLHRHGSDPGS

The assay has as its target human ether-à-go-go-related gene (hERG) potassium channel (human, UniProt Q12809). Kind of assay: primary screen, population patch clamp on CHO cells stably expressing hERG.
In the case of `CCn1cc(Br)c(C(=O)Nc2ccc(F)cc2F)n1`, the “hERG current change (%, negative = inhibition) at 10uM” value was found to be 0.281%.

For the compound `O=C(CCC(=O)N1C[C@H]2C[C@@H](C1)c1cccc(=O)n1C2)NCc1ccccc1`, the “hERG current change (%, negative = inhibition) at 10uM” value was found to be 5.03%. In the case of `O=C(COC(=O)C12CC3CC(CC(Br)(C3)C1)C2)NNC(=O)c1ccccc1` it was -10.8%.

`O=C(COc1ccc(Cl)cc1)NCCNc1ccc([N+](=O)[O-])cc1`: the “hERG current change (%, negative = inhibition) at 10uM” value is -40.6%. Consider `O=C(NC(Nc1nc2ccc([N+](=O)[O-])cc2s1)(C(F)(F)F)C(F)(F)F)c1ccccc1`, for which the “hERG current change (%, negative = inhibition) at 10uM” value was -6.48%.

Consider `CC(C)Cc1cc(C(=O)Nc2ccc(Br)cc2)no1`, for which the “hERG current change (%, negative = inhibition) at 10uM” value was 8.77%. With `COc1cccc(-c2nc(CS(=O)(=O)CC(=O)NCCCN3CCN(C)CC3)c(C)o2)c1`, the “hERG current change (%, negative = inhibition) at 10uM” value worked out at 3.5%. `Cc1ccc(OS(=O)(=O)c2c(C)nn(C)c2Cl)c(C)c1`: the “hERG current change (%, negative = inhibition) at 10uM” value is recorded as 5.59%. Regarding `COc1cc(NC(=O)CCCSc2nc(-c3ccco3)cc(C(F)(F)F)n2)cc(OC)c1OC`, the “hERG current change (%, negative = inhibition) at 10uM” value came out at 5.83%. Regarding `CC(=O)N1CCN(CC(=O)Nc2ccc([N+](=O)[O-])cc2Br)CC1`, the “hERG current change (%, negative = inhibition) at 10uM” value is -75.3%. For `C=CCn1c(SCC(=O)NC2CCCC2)nc2scc(-c3ccco3)c2c1=O` the value was 9.66%; for `CCC(C)NC(=O)CS(=O)Cc1nc(-c2ccccc2C)oc1C` (centres unmarked), 12.2%. For `Cc1cccc(OCC(=O)NC(=S)Nc2ccccc2N2CCOCC2)c1C` the value was -0.0458%; for `Cc1[nH]c2ccccc2c1C(=O)C(=O)N1CC2CC(C1)c1cccc(=O)n1C2` (centres unmarked), -6.49%. Turning to `O=C(O/N=C\c1ccc(N2CCCCC2)c([N+](=O)[O-])c1)c1c(F)cccc1F`, the “hERG current change (%, negative = inhibition) at 10uM” value stood at 14.6%.

Turning to `Brc1c(CSc2nncc3ccccc23)nc2ccccn12`, the “hERG current change (%, negative = inhibition) at 10uM” value was -12.2%. Take `Cc1cc(C)nc(SCc2cc(=O)c(OC(=O)c3ccc(Br)o3)co2)n1`: the “hERG current change (%, negative = inhibition) at 10uM” value is recorded as -4.35%. As to `O=C(CCNS(=O)(=O)c1ccccc1C(F)(F)F)N1CCN(C(c2ccccc2)c2ccccc2)CC1`, the “hERG current change (%, negative = inhibition) at 10uM” value came to 1.61%. As for `Cc1ccc(SCCNC(=S)Nc2ccc(C)c(C)c2)cc1`, the “hERG current change (%, negative = inhibition) at 10uM” value was determined as 11.9%. As to `O=C(Cc1ccccc1)N1CCN(c2ccc([N+](=O)[O-])cc2)CC1`, the “hERG current change (%, negative = inhibition) at 10uM” value was -55.2%.

`CCC(C)Oc1nc2c(c(=O)n(C)c(=O)n2C)n1C` (centres unmarked): the “hERG current change (%, negative = inhibition) at 10uM” value was determined as 10.1%. For `Cc1nn(Cc2ccc(Cl)cc2)c(C)c1NC(=O)c1cc(C(C)C)on1`, the “hERG current change (%, negative = inhibition) at 10uM” value is on record as 5.88%. Consider `COc1cc2cc(C(=O)N3CCC(Cc4ccccc4)CC3)[nH]c2cc1OC`, for which the “hERG current change (%, negative = inhibition) at 10uM” value came out at 17.4%. `Cc1cc(C)c(S(=O)(=O)Cc2ccccc2)c(OC(C)C)n1`: the “hERG current change (%, negative = inhibition) at 10uM” value is given as -18.4%.

Take `O=C(O)CSc1nnc(-c2ccc3c(c2)OCO3)n1-c1ccccc1`: the “hERG current change (%, negative = inhibition) at 10uM” value came to 13.5%.

As to `COCCCNc1nc2c(c(=O)[nH]c(=O)n2C)n1CC(O)COc1cccc(C)c1` (centres unmarked), the “hERG current change (%, negative = inhibition) at 10uM” value is reported as -2.66%. `CCOc1ccc(NC(=O)c2ccc(C#CC(C)(C)O)cc2)cc1`: the “hERG current change (%, negative = inhibition) at 10uM” value came out at 9.67%.

Take `Cc1ccc(/C=N/n2c(-c3ccncc3)n[nH]c2=S)s1`: the “hERG current change (%, negative = inhibition) at 10uM” value turned out to be 21.9%. `CCC(Oc1ccccc1OC)C(=O)Nc1ccc2c(c1)OCO2` (centres unmarked): the “hERG current change (%, negative = inhibition) at 10uM” value is -5.32%.

Take `N#Cc1ccc(N2C(=O)[C@@H]3C(C(=O)c4cnccn4)=NN[C@@H]3C2=O)cc1`: the “hERG current change (%, negative = inhibition) at 10uM” value is given as 12%.

Consider `COc1ccc(CN2CCOCC2)cc1OC`, for which the “hERG current change (%, negative = inhibition) at 10uM” value was 3.03%.

As for `Cc1c(NC(=O)c2ccc3nsnc3c2)cccc1[N+](=O)[O-]`, the “hERG current change (%, negative = inhibition) at 10uM” value is 12.9%. In the case of `COC(=O)Nc1ccc(S(=O)(=O)NNC(=O)c2c(O)c3ccccc3n(C)c2=O)cc1` it was 25.9%. In the case of `O=C(CN1C(=O)NC(c2ccccc2)(c2ccccc2)C1=O)NCC(=O)Nc1ccc(F)cc1`, the “hERG current change (%, negative = inhibition) at 10uM” value came to 2.12%. Turning to `O=C1N=C(N2CCc3ccccc3C2)S/C1=C\c1ccc(O)cc1`, the “hERG current change (%, negative = inhibition) at 10uM” value is -20.8%. In the case of `NNP(=O)(CC(=O)c1ccccc1)c1ccccc1` (centres unmarked) it was 16.1%.

Consider `O=C(COC(=O)CCc1nc2ccccc2c(=O)[nH]1)Nc1ccc(Cl)cn1`, for which the “hERG current change (%, negative = inhibition) at 10uM” value turned out to be 3.9%. For `CC(=O)N1CCc2cc(S(=O)(=O)NCCC(=O)NCCc3ccc(Cl)cc3)ccc21` the value was -11.3%; for `CC(=O)Nc1sc(C)c(C)c1C(=O)OCC(=O)Nc1cc(S(C)(=O)=O)ccc1Cl`, -3.47%. On to `CC1CCCC(NC(=O)CCNC(=O)c2ccc(Br)cc2)C1C` (centres unmarked), for which the “hERG current change (%, negative = inhibition) at 10uM” value is on record as -0.231%. Turning to `CCS(=O)(=O)NCC(c1cccnc1)N1CCN(c2ccccc2F)CC1` (centres unmarked), the “hERG current change (%, negative = inhibition) at 10uM” value was -3.19%. As for `Cc1cccc(C(=O)N/N=C/c2cc(Br)c(Br)o2)c1`, the “hERG current change (%, negative = inhibition) at 10uM” value was -6.14%. For `COCCN(CCOC)c1nc(N)c2c(N)nc3c(c2c1C#N)CC(=O)N3Cc1ccc(Cl)cc1`, the “hERG current change (%, negative = inhibition) at 10uM” value is on record as -17.3%. `Cc1ccc(S(=O)(=O)[N-]c2nc3ccccc3nc2-n2cc[n+](Cc3ccccc3)c2)cc1`: the “hERG current change (%, negative = inhibition) at 10uM” value was determined as 11%.
